Test results as given in paper PMC4771807.
No constants are given. Whether binding was seen depends on the method and setting. In cells and extracts the contact can be indirect. Some entries that bind do so weakly or less than the wild type. Where a sequence is shown, tags or fusion partners need not be part of it. Blank lines part the entries; values can stand above or below the molecule they belong to.

By UniProt entry, the sequences of proteins in these tests, tags left out. Where a name states a change or a piece, a line headed by the entry shows the natural chain unless it says otherwise. Chains listed by the source or under a name are the forms on record and can include a tag or linker. Residues count along the entry.
long signaling form of the leptin receptor (LRb) (mouse (endogenous in brain)) (P48356, residues 22-1162): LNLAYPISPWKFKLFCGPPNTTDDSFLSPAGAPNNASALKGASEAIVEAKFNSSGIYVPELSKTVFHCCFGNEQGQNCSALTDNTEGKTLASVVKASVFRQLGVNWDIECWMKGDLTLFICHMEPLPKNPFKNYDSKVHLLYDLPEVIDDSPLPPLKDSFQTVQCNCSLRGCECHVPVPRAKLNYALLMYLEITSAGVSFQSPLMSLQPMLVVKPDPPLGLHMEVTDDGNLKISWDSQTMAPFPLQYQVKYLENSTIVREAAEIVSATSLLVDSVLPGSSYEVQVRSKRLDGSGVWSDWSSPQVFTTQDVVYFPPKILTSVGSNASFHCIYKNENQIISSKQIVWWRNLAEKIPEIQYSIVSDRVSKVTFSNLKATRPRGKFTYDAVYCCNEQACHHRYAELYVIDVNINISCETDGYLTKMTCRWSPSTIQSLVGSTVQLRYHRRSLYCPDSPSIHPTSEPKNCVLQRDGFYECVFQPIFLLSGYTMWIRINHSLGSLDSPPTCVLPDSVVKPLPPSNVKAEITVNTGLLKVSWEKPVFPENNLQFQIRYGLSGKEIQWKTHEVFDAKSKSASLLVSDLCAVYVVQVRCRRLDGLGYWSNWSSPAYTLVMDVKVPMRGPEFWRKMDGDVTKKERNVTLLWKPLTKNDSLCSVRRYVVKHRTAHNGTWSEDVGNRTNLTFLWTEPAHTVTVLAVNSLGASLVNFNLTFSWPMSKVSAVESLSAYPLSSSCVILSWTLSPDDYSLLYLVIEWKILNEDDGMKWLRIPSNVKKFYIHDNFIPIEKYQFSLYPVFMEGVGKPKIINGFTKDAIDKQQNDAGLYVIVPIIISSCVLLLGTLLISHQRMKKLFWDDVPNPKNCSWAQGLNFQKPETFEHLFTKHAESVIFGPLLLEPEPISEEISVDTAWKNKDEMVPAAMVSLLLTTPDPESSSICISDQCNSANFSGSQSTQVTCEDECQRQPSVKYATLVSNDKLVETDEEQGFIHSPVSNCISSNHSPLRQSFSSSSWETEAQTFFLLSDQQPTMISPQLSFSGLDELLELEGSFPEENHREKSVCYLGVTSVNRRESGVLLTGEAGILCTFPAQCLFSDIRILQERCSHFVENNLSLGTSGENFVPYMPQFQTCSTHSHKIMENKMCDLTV
LRa (P48356-2, form named): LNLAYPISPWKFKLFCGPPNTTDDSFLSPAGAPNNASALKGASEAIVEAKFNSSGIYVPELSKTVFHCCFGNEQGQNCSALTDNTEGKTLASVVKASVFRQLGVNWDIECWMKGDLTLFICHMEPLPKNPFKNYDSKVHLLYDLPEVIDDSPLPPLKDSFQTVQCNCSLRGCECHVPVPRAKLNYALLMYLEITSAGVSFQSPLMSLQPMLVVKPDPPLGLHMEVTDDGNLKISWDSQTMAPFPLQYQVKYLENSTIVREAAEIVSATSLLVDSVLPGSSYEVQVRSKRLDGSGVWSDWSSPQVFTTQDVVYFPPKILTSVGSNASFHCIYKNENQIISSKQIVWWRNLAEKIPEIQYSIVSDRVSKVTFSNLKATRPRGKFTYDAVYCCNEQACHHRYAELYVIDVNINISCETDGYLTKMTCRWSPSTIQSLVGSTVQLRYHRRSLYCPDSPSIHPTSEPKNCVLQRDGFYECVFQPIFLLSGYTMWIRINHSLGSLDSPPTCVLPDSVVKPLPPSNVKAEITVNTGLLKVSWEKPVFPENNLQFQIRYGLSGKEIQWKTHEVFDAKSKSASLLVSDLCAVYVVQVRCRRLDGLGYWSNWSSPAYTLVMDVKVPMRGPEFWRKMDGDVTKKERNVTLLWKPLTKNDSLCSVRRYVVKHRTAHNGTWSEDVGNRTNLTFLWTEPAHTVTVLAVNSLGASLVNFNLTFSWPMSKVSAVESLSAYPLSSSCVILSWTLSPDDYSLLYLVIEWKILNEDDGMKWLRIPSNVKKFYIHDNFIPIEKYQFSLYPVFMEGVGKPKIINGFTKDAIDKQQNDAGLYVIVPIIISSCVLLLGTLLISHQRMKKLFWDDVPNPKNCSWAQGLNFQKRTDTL

Legend:
[1] = target: T1, Flag- and S-tagged human BBS1 (human) (UniProt Q8NFJ9); test: co-IP; whole brain lysate (800 μg protein) of transgenic mice expressing Flag-BBS1; immunoprecipitation with an anti-LR antibody (recognizes LRb and LRa), blots with M2 anti-Flag and anti-LR; reciprocal by the legend
T1 sequence: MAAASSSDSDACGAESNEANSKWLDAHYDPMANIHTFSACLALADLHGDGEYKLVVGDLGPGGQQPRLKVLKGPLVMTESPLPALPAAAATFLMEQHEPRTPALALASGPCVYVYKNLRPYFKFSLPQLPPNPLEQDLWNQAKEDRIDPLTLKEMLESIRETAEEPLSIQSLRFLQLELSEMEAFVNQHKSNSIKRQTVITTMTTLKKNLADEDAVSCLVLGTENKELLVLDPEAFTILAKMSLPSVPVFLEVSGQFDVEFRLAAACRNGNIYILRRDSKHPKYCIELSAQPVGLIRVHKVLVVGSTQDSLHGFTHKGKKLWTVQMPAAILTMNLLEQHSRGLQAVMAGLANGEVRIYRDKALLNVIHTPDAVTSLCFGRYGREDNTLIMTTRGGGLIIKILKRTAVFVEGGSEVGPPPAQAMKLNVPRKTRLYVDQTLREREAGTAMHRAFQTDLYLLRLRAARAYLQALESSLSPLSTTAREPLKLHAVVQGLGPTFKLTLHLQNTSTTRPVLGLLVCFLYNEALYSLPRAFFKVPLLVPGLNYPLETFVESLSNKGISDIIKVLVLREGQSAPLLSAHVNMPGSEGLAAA

[2] = target: T1, Flag- and S-tagged human BBS1 (human); test: co-IP; pooled cortex lysates from 3 transgenic mice expressing Flag-BBS1; reciprocal immunoprecipitation
[3] = target: T1, Flag- and S-tagged human BBS1 (human); test: co-IP; pooled hypothalamic lysates from 3 transgenic mice expressing Flag-BBS1; reciprocal immunoprecipitation
[4] = target: long signaling form of the leptin receptor (LRb) (mouse (endogenous in brain)) (UniProt P48356); test: co-IP; whole brain lysate (800 μg protein) of transgenic mice expressing Flag-BBS1; immunoprecipitation with an anti-LR antibody (recognizes LRb and LRa), blots with M2 anti-Flag and anti-LR; reciprocal by the legend
[5] = target: long signaling form of the leptin receptor (LRb) (mouse (endogenous in brain)) (UniProt P48356); test: co-IP; pooled cortex lysates from 3 transgenic mice expressing Flag-BBS1; reciprocal immunoprecipitation
[6] = target: long signaling form of the leptin receptor (LRb) (mouse (endogenous in brain)) (UniProt P48356); test: co-IP; pooled hypothalamic lysates from 3 transgenic mice expressing Flag-BBS1; reciprocal immunoprecipitation

binding [1]: no binding
Molecule: LRa (from UniProt P48356-2 22-894) (receptor)

binding [1]: binds
binding [3]: binds
Molecule: long signaling form of the leptin receptor (LRb) (from UniProt P48356 22-1162)
binding [2]: no binding (condition: in cortex lysates)

binding [4]: binds
binding [6]: binds
B1: Flag- and S-tagged human BBS1 (protein, UniProt Q8NFJ9 1-593)
chain: T1 sequence
binding [5]: no binding (condition: in cortex lysates)
